# Laboratory results as given in the supplement of paper PMC8728848.
# The other results are listed elsewhere or left out.
# Experiments:
# Test in all cases: glycan array binding signal (z-score within array); higher = stronger binding
# Conditions in all cases: glycan notation: IUPAC condensed, linker removed; mutation: E227G
# [1] = molecular target: Neu5Ac(a2-3)Gal(b1-4)GlcNAc(b1-3)[Neu5Ac(a2-3)Gal(b1-4)GlcNAc(b1-6)]GalNAc
# Outline: (§1)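 The binding signal is a Z-score computed within each array. Data were drawn from 3228 arrays in the Consortium for Functional Glycomics database, restricted to those with a known protein sequence. Scores were averaged over arrays of the same protein sequence at different concentrations or buffers, and over linkers, and negative values can be taken as non-binding.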
# [2] = molecular target: Neu5Ac(a2-3)Gal(b1-4)GlcNAc(b1-6)GalNAc
# Outline: as §1
# [3] = molecular target: Neu5Ac(a2-3)Gal(b1-4)GlcNAc(b1-6)[Gal(b1-3)]GalNAc
# Outline: as §1
# [4] = molecular target: Neu5Ac(a2-3)Gal(b1-4)GlcNAc(b1-6)[Neu5Ac(a2-3)Gal(b1-3)]GalNAc
# Outline: as §1
# [5] = molecular target: Neu5Ac(a2-3)Gal(b1-4)GlcNAc6S
# Outline: as §1
# [6] = molecular target: Neu5Ac(a2-3)Gal(b1-4)[Fuc(a1-3)]GlcNAc
# Outline: as §1
# [7] = molecular target: Neu5Ac(a2-3)Gal(b1-4)[Fuc(a1-3)]GlcNAc(b1-2)Man
# Outline: as §1
# [8] = molecular target: Neu5Ac(a2-3)Gal(b1-4)[Fuc(a1-3)]GlcNAc(b1-3)Gal
# Outline: as §1
# [9] = molecular target: Neu5Ac(a2-3)Gal(b1-4)[Fuc(a1-3)]GlcNAc(b1-3)Gal(b1-4)GlcNAc
# Outline: as §1
# [10] = molecular target: Neu5Ac(a2-3)Gal(b1-4)[Fuc(a1-3)]GlcNAc(b1-3)Gal(b1-4)[Fuc(a1-3)]GlcNAc(b1-3)Gal(b1-4)[Fuc(a1-3)]GlcNAc
# Outline: as §1
# [11] = molecular target: Neu5Ac(a2-3)Gal(b1-4)[Fuc(a1-3)]GlcNAc(b1-3)GalNAc
# Outline: as §1
# [12] = molecular target: Neu5Ac(a2-3)Gal(b1-4)[Fuc(a1-3)]GlcNAc(b1-6)[Gal(b1-3)]GalNAc
# Outline: as §1
# [13] = molecular target: Neu5Ac(a2-3)Gal(b1-4)[Fuc(a1-3)]GlcNAc(b1-6)[Neu5Ac(a2-3)Gal(b1-3)]GalNAc
# Outline: as §1
# [14] = molecular target: Neu5Ac(a2-3)Gal(b1-4)[Fuc(a1-3)]GlcNAc6S
# Outline: as §1
# [15] = molecular target: Neu5Ac(a2-3)Gal6S(b1-4)GlcNAc
# Outline: as §1
# [16] = molecular target: Neu5Ac(a2-3)Gal6S(b1-4)[Fuc(a1-3)]GlcNAc
# Outline: as §1
# [17] = molecular target: Neu5Ac(a2-3)GalNAc
# Outline: as §1
# [18] = molecular target: Neu5Ac(a2-3)GalNAc(b1-4)GlcNAc
# Outline: as §1
# [19] = molecular target: Neu5Ac(a2-3)[GalNAc(b1-4)]Gal(b1-4)Glc
# Outline: as §1
# [20] = molecular target: Neu5Ac(a2-3)[GalNAc(b1-4)]Gal(b1-4)GlcNAc
# Outline: as §1
# [21] = molecular target: Neu5Ac(a2-3)[GalNAc(b1-4)]Gal(b1-4)GlcNAc(b1-3)GalNAc
# Outline: as §1
# [22] = molecular target: Neu5Ac(a2-3)[Neu5Ac(a2-6)]GalNAc
# Outline: as §1
# [23] = molecular target: Neu5Ac(a2-6)Gal
# Outline: as §1
# [24] = molecular target: Neu5Ac(a2-6)Gal(b1-3)GlcNAc(b1-3)[Gal(b1-4)GlcNAc(b1-6)]Gal(b1-4)Glc
# Outline: as §1
# [25] = molecular target: Neu5Ac(a2-6)Gal(b1-4)Glc
# Outline: as §1
# [26] = molecular target: Neu5Ac(a2-6)Gal(b1-4)GlcNAc
# Outline: as §1
# [27] = molecular target: Neu5Ac(a2-6)Gal(b1-4)GlcNAc(b1-2)Man
# Outline: as §1
# [28] = molecular target: Neu5Ac(a2-6)Gal(b1-4)GlcNAc(b1-2)Man(a1-3)Man(b1-4)GlcNAc(b1-4)GlcNAc
# Outline: as §1
# [29] = molecular target: Neu5Ac(a2-6)Gal(b1-4)GlcNAc(b1-2)Man(a1-3)[Gal(b1-4)GlcNAc(b1-2)Man(a1-6)]Man(b1-4)GlcNAc(b1-4)GlcNAc
# Outline: as §1
# [30] = molecular target: Neu5Ac(a2-6)Gal(b1-4)GlcNAc(b1-2)Man(a1-3)[GlcNAc(b1-2)Man(a1-6)]Man(b1-4)GlcNAc(b1-4)GlcNAc
# Outline: as §1
# [31] = molecular target: Neu5Ac(a2-6)Gal(b1-4)GlcNAc(b1-2)Man(a1-3)[GlcNAc(b1-4)][Neu5Ac(a2-6)Gal(b1-4)GlcNAc(b1-2)Man(a1-6)]Man(b1-4)GlcNAc(b1-4)GlcNAc
# Outline: as §1
# [32] = molecular target: Neu5Ac(a2-6)Gal(b1-4)GlcNAc(b1-2)Man(a1-3)[Man(a1-6)]Man(b1-4)GlcNAc(b1-4)GlcNAc
# Outline: as §1
# [33] = molecular target: Neu5Ac(a2-6)Gal(b1-4)GlcNAc(b1-2)Man(a1-3)[Neu5Ac(a2-3)Gal(b1-4)GlcNAc(b1-2)Man(a1-6)]Man(b1-4)GlcNAc(b1-4)GlcNAc
# Outline: as §1
# [34] = molecular target: Neu5Ac(a2-6)Gal(b1-4)GlcNAc(b1-2)Man(a1-3)[Neu5Ac(a2-6)Gal(b1-4)GlcNAc(b1-2)Man(a1-6)]Man(b1-4)GlcNAc(b1-4)GlcNAc
# Outline: as §1
# [35] = molecular target: Neu5Ac(a2-6)Gal(b1-4)GlcNAc(b1-2)Man(a1-3)[Neu5Ac(a2-6)Gal(b1-4)GlcNAc(b1-2)Man(a1-6)]Man(b1-4)GlcNAc(b1-4)[Fuc(a1-6)]GlcNAc
# Outline: as §1
# [36] = molecular target: Neu5Ac(a2-6)Gal(b1-4)GlcNAc(b1-2)Man(a1-6)Man(b1-4)GlcNAc(b1-4)GlcNAc
# Outline: as §1
# [37] = molecular target: Neu5Ac(a2-6)Gal(b1-4)GlcNAc(b1-2)Man(a1-6)[Gal(b1-4)GlcNAc(b1-2)Man(a1-3)]Man(b1-4)GlcNAc(b1-4)GlcNAc
# Outline: as §1
# [38] = molecular target: Neu5Ac(a2-6)Gal(b1-4)GlcNAc(b1-2)Man(a1-6)[GlcNAc(b1-2)Man(a1-3)]Man(b1-4)GlcNAc(b1-4)GlcNAc
# Outline: as §1
# [39] = molecular target: Neu5Ac(a2-6)Gal(b1-4)GlcNAc(b1-2)Man(a1-6)[Man(a1-3)]Man(b1-4)GlcNAc(b1-4)GlcNAc
# Outline: as §1
# [40] = molecular target: Neu5Ac(a2-6)Gal(b1-4)GlcNAc(b1-2)[Neu5Ac(a2-6)Gal(b1-4)GlcNAc(b1-4)]Man(a1-3)[GlcNAc(b1-4)][Neu5Ac(a2-6)Gal(b1-4)GlcNAc(b1-2)[Neu5Ac(a2-6)Gal(b1-4)GlcNAc(b1-6)]Man(a1-6)]Man(b1-4)GlcNAc(b1-4)GlcNAc
# Outline: as §1
# [41] = molecular target: Neu5Ac(a2-6)Gal(b1-4)GlcNAc(b1-2)[Neu5Ac(a2-6)Gal(b1-4)GlcNAc(b1-4)]Man(a1-3)[GlcNAc(b1-4)][Neu5Ac(a2-6)Gal(b1-4)GlcNAc(b1-4)Man(a1-6)]Man(b1-4)GlcNAc(b1-4)GlcNAc
# Outline: as §1
# [42] = molecular target: Neu5Ac(a2-6)Gal(b1-4)GlcNAc(b1-2)[Neu5Ac(a2-6)Gal(b1-4)GlcNAc(b1-6)]Man(a1-6)[Neu5Ac(a2-6)Gal(b1-4)GlcNAc(b1-2)Man(a1-3)][GlcNAc(b1-4)]Man(b1-4)GlcNAc(b1-4)GlcNAc
# Outline: as §1
# [43] = molecular target: Neu5Ac(a2-6)Gal(b1-4)GlcNAc(b1-3)Gal(b1-3)GlcNAc
# Outline: as §1
# [44] = molecular target: Neu5Ac(a2-6)Gal(b1-4)GlcNAc(b1-3)Gal(b1-4)GlcNAc
# Outline: as §1
# [45] = molecular target: Neu5Ac(a2-6)Gal(b1-4)GlcNAc(b1-3)Gal(b1-4)GlcNAc(b1-2)Man(a1-3)[Neu5Ac(a2-6)Gal(b1-4)GlcNAc(b1-3)Gal(b1-4)GlcNAc(b1-2)Man(a1-6)]GalNAc
# Outline: as §1
# [46] = molecular target: Neu5Ac(a2-6)Gal(b1-4)GlcNAc(b1-3)Gal(b1-4)GlcNAc(b1-3)Gal(b1-4)GlcNAc
# Outline: as §1
binder,measurement,setting,value
"Epa1-NP-mutant-E227G (Candida glabrata), Q6VBJ0 (protein) MILNPALFLNKCVCIYTTLILLLLTNGGYATSSNDISLASKDPTTFPLGCSPDITTPKKGLSMELYSYDFRKKGSYPCWDAAYLDPNYPRTGYKSHRLLAKVDGVTGNINFYYHATKGCTPQLGHLPASYNYPKPLTMTNFTMLLYGYFRPKVTGFHTFTISADDLLFVNFGAGNAFDCCRRDSSADHFGNYQAYAIWGSKTAKDELTVHLDAGVYYPIRLFYNNRGYDGALSFTFKTESNENTVSDFSEYFFSLDDTEEGCPGLISYDSSCASVKTSKIIGIDYHTETPNENLVPITKTIYHLGIPCTGTTTTPLCGSGFYDPLANKCVTINTSSTSSVTKTTSHTTSKEVSFHSSISSQKTLIPKSIPSPYGPIKSQSIPTEMETSSEISSSEYAFSDVISTPSHSPYTKKHSSLNSSSYTSTVIHSLTSYSISQGIFSTSLSEQNITSKSSTDKFSTATSMSNNITQSSIIISQFSTNNENYTTTSMHTSSDKISTETLNNSISTTTSILFSNSSTILKNNTTIISSDKDTHYHPVNPTIVCSTNKTEIICASITQPSISNSNNHWSSSVLKFNSTTVRSTLPSSAGSNETSINVPFSSSTESNTSTSSTSTSNSKMVRSTLPSSAGSNETSISVPFSSSTESNTSTSSTSTSNSKMVRSTLPSSAGSNETSINVPFSSSTESNTSTSSTSTSNSKTVRSTPFSSAGIIMTSLSQRNNKSASSYASSNSKCYNTADSCRKVHSTPSYLLTSSYTSEGVDYDCSLVSTKLKINDTNCVNNKHTTKSCLKTSVTTTIPTLEIKTARKSSSNTIGLHSYPTSSPNKSISSAPIIGYISSFKTIKTASPSYQTSDLTTITTITSLNNPGSTAVENTHESNDKSRKTSSNDISSKHSVIKETKDAVESSNKSHQTNTLKCSSIIIASSSHNSYESLGGTTLTLTLSKVYSPQNNDTLPFLEISEVNPSRTVLPESSKMMQYLTSTEERNKTARNTIATNIVSISTFHFEGEGNAIRMGYTQLLLMLIGIIVMNIGT",glycan array binding signal (z-score),[1],-0.174
same,glycan array binding signal (z-score),[2],-0.157
same,glycan array binding signal (z-score),[3],0.176
same,glycan array binding signal (z-score),[4],-0.111
same,glycan array binding signal (z-score),[5],-0.241
same,glycan array binding signal (z-score),[6],-0.186
same,glycan array binding signal (z-score),[7],-0.326
same,glycan array binding signal (z-score),[8],-0.145
same,glycan array binding signal (z-score),[9],-0.14
same,glycan array binding signal (z-score),[10],-0.192
same,glycan array binding signal (z-score),[11],0.126
same,glycan array binding signal (z-score),[12],-0.043
same,glycan array binding signal (z-score),[13],0.017
same,glycan array binding signal (z-score),[14],-0.268
same,glycan array binding signal (z-score),[15],-0.281
same,glycan array binding signal (z-score),[16],-0.356
same,glycan array binding signal (z-score),[17],-0.158
same,glycan array binding signal (z-score),[18],-0.186
same,glycan array binding signal (z-score),[19],-0.169
same,glycan array binding signal (z-score),[20],-0.209
same,glycan array binding signal (z-score),[21],0.168
same,glycan array binding signal (z-score),[22],-0.219
same,glycan array binding signal (z-score),[23],-0.119
same,glycan array binding signal (z-score),[24],-0.144
same,glycan array binding signal (z-score),[25],-0.243
same,glycan array binding signal (z-score),[26],-0.247
same,glycan array binding signal (z-score),[27],-0.243
same,glycan array binding signal (z-score),[28],-0.065
same,glycan array binding signal (z-score),[29],-0.187
same,glycan array binding signal (z-score),[30],-0.204
same,glycan array binding signal (z-score),[31],-0.024
same,glycan array binding signal (z-score),[32],-0.18
same,glycan array binding signal (z-score),[33],-0.171
same,glycan array binding signal (z-score),[34],-0.125
same,glycan array binding signal (z-score),[35],-0.112
same,glycan array binding signal (z-score),[36],-0.193
same,glycan array binding signal (z-score),[37],-0.082
same,glycan array binding signal (z-score),[38],-0.195
same,glycan array binding signal (z-score),[39],-0.092
same,glycan array binding signal (z-score),[40],-0.153
same,glycan array binding signal (z-score),[41],-0.059
same,glycan array binding signal (z-score),[42],-0.074
same,glycan array binding signal (z-score),[43],0.067
same,glycan array binding signal (z-score),[44],-0.099
same,glycan array binding signal (z-score),[45],-0.086
same,glycan array binding signal (z-score),[46],-0.305
